Hit rate of the full screen: of about 310,000 compounds, about 14,000 (4.5%) showed an effect of 50% or more. Effects have a minus sign here. The list shows a part of the results.
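Further: peak tail current of the secondary pulse compared with the same well before compound.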

The target of this assay is human ether-à-go-go-related gene (hERG) potassium channel (human, UniProt Q12809). As to the kind of experiment: primary screen, population patch clamp on CHO cells stably expressing hERG.
Sequence of human ether-à-go-go-related gene (hERG) potassium channel (Q12809 whole entry, looked up): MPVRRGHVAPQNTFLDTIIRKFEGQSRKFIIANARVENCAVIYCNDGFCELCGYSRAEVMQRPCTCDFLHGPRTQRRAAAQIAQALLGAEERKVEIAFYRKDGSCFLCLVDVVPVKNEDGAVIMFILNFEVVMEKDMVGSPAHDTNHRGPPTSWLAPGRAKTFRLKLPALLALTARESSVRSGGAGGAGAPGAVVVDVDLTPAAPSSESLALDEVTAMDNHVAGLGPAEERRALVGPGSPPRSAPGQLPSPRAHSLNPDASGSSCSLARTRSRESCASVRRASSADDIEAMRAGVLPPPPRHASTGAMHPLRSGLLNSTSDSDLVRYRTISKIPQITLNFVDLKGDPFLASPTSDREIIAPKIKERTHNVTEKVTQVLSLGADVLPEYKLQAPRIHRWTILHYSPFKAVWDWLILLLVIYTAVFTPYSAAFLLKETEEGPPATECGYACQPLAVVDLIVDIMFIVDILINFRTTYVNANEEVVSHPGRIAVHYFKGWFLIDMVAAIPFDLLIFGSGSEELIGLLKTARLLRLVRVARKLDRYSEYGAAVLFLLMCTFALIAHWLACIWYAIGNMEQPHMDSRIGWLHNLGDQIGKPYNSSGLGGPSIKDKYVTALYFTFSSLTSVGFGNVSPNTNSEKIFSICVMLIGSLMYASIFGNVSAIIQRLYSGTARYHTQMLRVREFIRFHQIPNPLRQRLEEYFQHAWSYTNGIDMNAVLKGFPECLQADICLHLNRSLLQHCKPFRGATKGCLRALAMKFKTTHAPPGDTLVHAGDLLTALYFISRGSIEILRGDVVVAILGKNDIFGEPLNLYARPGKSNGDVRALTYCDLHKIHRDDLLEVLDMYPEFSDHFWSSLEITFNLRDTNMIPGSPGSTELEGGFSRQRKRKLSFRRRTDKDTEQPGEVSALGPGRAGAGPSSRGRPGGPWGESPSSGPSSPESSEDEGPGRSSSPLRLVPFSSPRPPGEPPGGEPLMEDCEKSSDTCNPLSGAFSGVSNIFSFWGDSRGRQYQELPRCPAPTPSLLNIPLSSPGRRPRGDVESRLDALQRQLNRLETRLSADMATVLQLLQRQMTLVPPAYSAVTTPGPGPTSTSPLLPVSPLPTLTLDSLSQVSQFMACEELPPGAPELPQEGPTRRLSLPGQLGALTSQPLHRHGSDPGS
On to `COC(=O)c1ccc(CNC(=O)Cn2nnnc2CN(C)C(C)C)cc1`, for which the “hERG current change (%, negative = inhibition) at 10uM” value worked out at 15.3%. As for `O=C(COc1coc(CN2CCc3ccccc32)cc1=O)N1CCCCC1`, the “hERG current change (%, negative = inhibition) at 10uM” value was -4.83%. The result for `O=C(Cc1ccccc1)N/N=C/c1ccc2c(c1)OCO2` reads 6.11%. Turning to `CCn1c(=Nc2ccc(N3CCOCC3)cc2)ccc2ccccc21`, the “hERG current change (%, negative = inhibition) at 10uM” value is -66.8%. With `Fc1ccc(CSc2nnc(Cc3sc(-c4ccccc4)nc3-c3ccccc3)o2)cc1` the figure was 19.2%; with `COCC(=O)N(Cc1cc2ccc(C)cc2[nH]c1=O)c1ccc(C)cc1C`, 4.32%; with `Cc1nc(N2CCN(C)CC2)c2c(C)c(C(=O)Nc3ccc(C)c(F)c3)sc2n1`, -40.8%. `COc1ccc(-c2cc(C(F)(F)F)c(C#N)c(SCC(=O)Nc3ccc(C)cc3)n2)cc1`: the “hERG current change (%, negative = inhibition) at 10uM” value was -0.803%. In the case of `O=C(NCc1cccc(CNC(=O)C(=O)NCc2ccco2)c1)C(=O)NCc1ccco1`, the “hERG current change (%, negative = inhibition) at 10uM” value is on record as -25.7%. `O=C(CSc1nnc(Cc2cc(=O)[nH]c(=O)[nH]2)n1-c1ccc(F)cc1)NC1CCCC1`: the “hERG current change (%, negative = inhibition) at 10uM” value is 5.2%. With `CCOC(=O)N1CCN(CC(O)COc2ccc3c(c2)CCC3)CC1.Cl` (stereo not shown) the figure was -18.1%; with `CCN(CC)C(=O)c1c(NC(=O)c2ccccc2)sc(C)c1C`, -6.01%. With `Cc1nc(SCC(=O)N2CCN(C(=O)c3ccco3)CC2)c2c(C)c(C)sc2n1` the figure was -66.8%; with `S=c1[nH]nc(COc2ccccc2)n1/N=C/c1ccccc1Cl`, 24.6%. The result for `CC(=O)c1ccc(OC(=O)N(C)c2ccccc2)cc1` reads 11%; that for `CNC(=O)Nc1cccc(C(F)(F)F)c1`, -3.03%; that for `Cc1ccc(-n2ncc(C(=O)NC3CC3)c2C2CCN(C(=O)OC(C)(C)C)CC2)c(C)c1`, 1.48%.

In the case of `Cc1nc2ccccc2nc1OCc1ccccc1`, the “hERG current change (%, negative = inhibition) at 10uM” value was -16.2%. As to `COc1ccc(-c2nnc(SCC(=O)N3CCN(c4ccccc4)CC3)o2)cc1OC`, the “hERG current change (%, negative = inhibition) at 10uM” value came to 10%. With `Cc1c(C(=O)N(Cc2ccc(N(C)C)cc2)CC2CCCO2)oc2ccccc12` (stereo not shown) the figure was -26.5%.

As for `O=C(COC(=O)Cn1cnc2ccccc2c1=O)Nc1ccc(Cl)cc1`, the “hERG current change (%, negative = inhibition) at 10uM” value is -12.1%. Take `COCCNc1nc(SCC(=O)N2CCN(c3ccccc3)CC2)nc2ccccc12`: the “hERG current change (%, negative = inhibition) at 10uM” value is listed as -86.9%. As to `COc1cccc(CN2CCN(C(=S)NCc3ccc(Cl)cc3)CC2)c1`, the “hERG current change (%, negative = inhibition) at 10uM” value was -14.9%. With `NNC(=O)c1ccc(-c2ccccc2F)cc1` the figure was 1.61%; with `CCCS(=O)(=O)c1nc(C)cc(C)c1S(C)(=O)=O`, 16.8%.

As for `COC1=C(Nc2ccc(O)cc2)C(=O)c2ccccc2C1=O`, the “hERG current change (%, negative = inhibition) at 10uM” value is on record as -10.4%.

Consider `O=C(O)c1cccc(N2C(=O)c3cccc4c(Cl)ccc(c34)C2=O)c1`, for which the “hERG current change (%, negative = inhibition) at 10uM” value was 21.6%. The result for `Cc1ccc(CN2CC(C(=O)Nc3ccc(S(=O)(=O)Nc4cc(C)nc(C)n4)cc3)CC2=O)cc1` (stereo not shown) reads 15.6%; that for `COc1ccc(NC(=S)NCc2ccc(F)cc2)c(OC)c1`, 1.54%.

Consider `S=C(Nc1ccc(Cl)c(Cl)c1)NC1CCCCC1`, for which the “hERG current change (%, negative = inhibition) at 10uM” value was -4.21%. Turning to `Nc1nc(NCCO)nc(NC2CCCCC2)c1[N+](=O)[O-]`, the “hERG current change (%, negative = inhibition) at 10uM” value is listed as -4.71%.

As to `Clc1ccc(-c2c(C3=NCCCN3)nnn2-c2ccc(Cl)cc2)cc1`, the “hERG current change (%, negative = inhibition) at 10uM” value is -45.1%.

`CCn1c(=O)cc(OCC(=O)Nc2ccccc2C#N)c2ccccc21`: the “hERG current change (%, negative = inhibition) at 10uM” value was 6.06%. For the compound `Cc1cc(C)cc(-n2ncc3c2CCCC3NC(=O)C2(C(N)=O)CC2)c1` (stereo not shown), the “hERG current change (%, negative = inhibition) at 10uM” value is reported as 13.7%. For `CNC(=S)N(Cc1ccc(OC)cc1)C1CC(=O)N(c2ccc(Cl)cc2)C1=O` (stereo not shown), the “hERG current change (%, negative = inhibition) at 10uM” value is given as -12.6%. With `O=[N+]([O-])c1ccc(Cl)c2c1C1C=CCC1C(c1ccccn1)N2` (stereo not shown) the figure was 17.4%. The result for `Cc1nc(C(=O)O)cc2c1[nH]c1ccccc12` reads 2.13%; that for `CCC(Cc1ccccc1)NS(=O)(=O)c1ccc2c(c1)NC(=O)C(C)S2` (stereo not shown), 11.4%. With `Cc1cc(N2C(=O)C(O)=C(C(=O)c3ccc(C)o3)C2c2cccc(Oc3ccccc3)c2)no1` (stereo not shown) the figure was 16.4%. For `O=C(c1ccc2c(=O)n(Cc3ccco3)c(=S)[nH]c2c1)N1CCN(Cc2ccccc2)CC1`, the “hERG current change (%, negative = inhibition) at 10uM” value was -5%. `COC(=O)c1ccc(N/C(C)=C/C(=O)c2ccc(C)o2)cc1`: the “hERG current change (%, negative = inhibition) at 10uM” value turned out to be 9.09%. In the case of `COc1ccc(C(C(=O)NC2CCCC2)N(CC2CCCO2)C(=O)Cn2nnc(-c3ccc(C)o3)n2)cc1` (stereo not shown), the “hERG current change (%, negative = inhibition) at 10uM” value is on record as 12.9%. On to `Br.C/C(=N\NC1=N[C@H]2CS(=O)(=O)C[C@H]2S1)c1ccccc1`, for which the “hERG current change (%, negative = inhibition) at 10uM” value is reported as 14%.

Regarding `CCOC(=O)c1nc2cc3n(c(CC(C)C)c-2c1C)CC(C)=C3C.Cl`, the “hERG current change (%, negative = inhibition) at 10uM” value was -74%. Take `C/C(=N\NC(=O)COc1ccc(C)cc1[N+](=O)[O-])c1ccc2c(c1)OCCO2`: the “hERG current change (%, negative = inhibition) at 10uM” value is on record as 4.86%. Take `CN(C)/C=C(/C(=O)c1ccccc1)S(=O)(=O)c1ccc(Cl)cc1`: the “hERG current change (%, negative = inhibition) at 10uM” value is on record as -0.572%. As to `S=C(NCCCN1CCOCC1)Nc1ccc(Cl)cc1Cl`, the “hERG current change (%, negative = inhibition) at 10uM” value was -30.3%. With `O=C(O)c1cccc(NS(=O)(=O)/C=C/c2ccccc2)c1` the figure was 1.99%. With `Cc1ccc(-n2nnnc2SCC(=O)Nc2sc(C)c(C)c2C#N)cc1C` the figure was 3.56%; with `S=C(NCc1cccnc1)Nc1ccc(Oc2ccccc2)cc1`, 3.01%; with `Brc1cccc(C2Nc3cccc4cccc(c34)N2)c1`, 14.9%. The result for `CCOCCCNC(=O)Cc1ccc(Br)cc1` reads -1.41%. In the case of `COC(=O)c1c(C)oc2ccc(N(C(C)=O)S(=O)(=O)c3ccccc3)cc12`, the “hERG current change (%, negative = inhibition) at 10uM” value is -7.71%. Consider `COc1ccc(N2C(=O)/C(=C/c3cccs3)C(=O)NC2=S)cc1`, for which the “hERG current change (%, negative = inhibition) at 10uM” value is given as 25.1%. On to `Cc1nc(-c2ccccc2)sc1C(=O)CSc1ccc(Br)cc1`, for which the “hERG current change (%, negative = inhibition) at 10uM” value stood at 7.71%. As for `COc1ccccc1/C=C1\SC(=S)N(CCC(=O)Nc2cc(C)on2)C1=O`, the “hERG current change (%, negative = inhibition) at 10uM” value is reported as 15.6%. As for `COc1ccc2[nH]c(=O)c(CN(CCc3cccc(C)c3)C(C)=O)cc2c1`, the “hERG current change (%, negative = inhibition) at 10uM” value is listed as -36.5%. Turning to `COc1ccc(NC(=O)CCS(=O)(=O)c2ccc3c(c2)oc(=O)n3C)cc1OC`, the “hERG current change (%, negative = inhibition) at 10uM” value was 18%.

`O=C(Nc1ccccn1)c1cc2ccccc2cc1O`: the “hERG current change (%, negative = inhibition) at 10uM” value came out at 20.6%. With `COC(=O)C1CC(Cl)CN1c1ncc(C(F)(F)F)cc1Cl` (stereo not shown) the figure was 7.81%; with `COc1c(Cl)cc(Cl)cc1C(=O)Nc1ccc(NC(=O)c2cccs2)cc1`, 13.2%; with `O=C(CSCc1ccccc1)NNc1c(F)c(F)cc(F)c1F`, 10.3%. With `O=C(O)c1cnn(-c2ccccc2)c1-c1ccncc1` the figure was 24.9%; with `CC(=O)Nc1ccc(NC(=O)CC2SC(=O)N(CC(=O)c3ccccc3)C2=O)cc1` (stereo not shown), 7.25%; with `COCCn1c(N)c(N(Cc2ccccc2)C(=O)c2ccc(-c3ccc(Cl)cc3)o2)c(=O)[nH]c1=O`, -45.5%. For the compound `COc1ccc(OC)c(C2C(C(=O)c3sc(C)nc3C)=C(O)C(=O)N2CCN2CCOCC2)c1` (stereo not shown), the “hERG current change (%, negative = inhibition) at 10uM” value stood at 25.5%. In the case of `Cc1nc2c(-c3ccc(F)cc3)c(C)nn2c(C)c1CCC(=O)N1CCC2(CC1)OCCO2`, the “hERG current change (%, negative = inhibition) at 10uM” value is recorded as -67.8%. The result for `O=C(NCc1ccncc1)c1ccc(Br)cc1` reads -34.2%; that for `CC1CCCN(C(=O)COC(=O)CSc2ccc(C(N)=O)cc2[N+](=O)[O-])C1` (stereo not shown), -6.73%; that for `N#CCCN(C(=O)CN1C(=O)NC2(CCCC2)C1=O)c1ccccc1F`, 9.15%.

`COc1ccc(-c2nnc(SCc3cc(C)ccc3C)n2N)cc1`: the “hERG current change (%, negative = inhibition) at 10uM” value is recorded as -8.52%. As to `O=C(Nc1ccc(C(=O)N2CCC([NH+]3CCOCC3)CC2)cc1)c1ccc(Br)o1.O=C(O)C(F)(F)F`, the “hERG current change (%, negative = inhibition) at 10uM” value was 3.26%. For the compound `CC1Cc2cc(S(=O)(=O)N3CCC(C(=O)NCc4ccco4)CC3)ccc2N1C(=O)C1CCC1` (stereo not shown), the “hERG current change (%, negative = inhibition) at 10uM” value is -5.05%. With `CCN(CC)CC#CCC(O)(c1ccccc1)C1CCCCC1.Cl` (stereo not shown) the figure was -28%; with `Cn1cnnc1SCc1ccc(C(=O)NN)cc1`, -10.1%.

With `COc1ccc(NC2CC(=O)N(C(C)C)C2=O)cc1` (stereo not shown), the “hERG current change (%, negative = inhibition) at 10uM” value was 20.7%. The result for `O=C(CSc1nnc(-c2ccccc2)o1)N1CCN(c2ccccc2)CC1` reads 24.5%.

With `COc1ccc(CNC(=O)CCCn2nc(C)c3c(C)n(-c4ccc(C)cc4)nc3c2=O)cc1OC`, the “hERG current change (%, negative = inhibition) at 10uM” value is reported as -26%. With `CCOC(=O)C1CCN(C(=O)CCS(=O)(=O)c2ccc3c(c2)CCN3C(C)=O)CC1` the figure was 13.5%; with `CCOc1ccc(-n2ccnc(SCC(=O)NCc3cccc(OC)c3)c2=O)cc1`, -26.2%.

`O=C(c1cc2c(s1)CCCC2)N1CCN(c2ccccc2)CC1`: the “hERG current change (%, negative = inhibition) at 10uM” value turned out to be 5.61%. As for `CC(C)(C)OC(=O)NCCCCCNC(=O)c1[nH]cnc1C(=O)NC1CCN(C(=O)OC(C)(C)C)CC1`, the “hERG current change (%, negative = inhibition) at 10uM” value is reported as -78.1%. The result for `N#CCC(=O)Nc1ccc(C(=O)OCC(=O)N=c2sccn2Cc2ccccc2Cl)cc1` reads -17.7%; that for `Cc1c2c(nc3ccccc13)CC(C)(C)CC2=O.Cl`, 0.994%; that for `O=C1CN(CC(=O)Nc2cccc(Cl)c2Cl)c2ccccc2N1`, 12.1%.

Values taken from PMC4336329 (PLoS ONE, 2015).
